Measured values as given in publication PMC9176254.
Results are given in words; binding and its absence hold for the method and conditions named. Some results given as binding are weak or reduced against the parent protein; the word gives no strength.

By UniProt entry, the sequences of proteins in these tests, tags left out.
UniProt Q9C5G0: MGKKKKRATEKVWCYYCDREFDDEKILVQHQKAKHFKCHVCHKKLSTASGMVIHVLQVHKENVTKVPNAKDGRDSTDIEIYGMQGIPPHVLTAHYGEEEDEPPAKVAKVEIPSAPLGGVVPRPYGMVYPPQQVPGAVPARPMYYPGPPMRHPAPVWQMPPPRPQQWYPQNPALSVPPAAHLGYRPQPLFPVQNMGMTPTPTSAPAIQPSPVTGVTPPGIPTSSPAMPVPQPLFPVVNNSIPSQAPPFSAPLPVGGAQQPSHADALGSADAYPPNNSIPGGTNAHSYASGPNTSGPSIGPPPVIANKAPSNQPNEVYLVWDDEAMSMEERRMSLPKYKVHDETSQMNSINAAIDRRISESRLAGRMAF

T1: C-TERMINAL DOMAIN PHOSPHATASE-LIKE 3 (CPL3) (Arabidopsis thaliana) (UniProt Q8LL04)
T1 sequence: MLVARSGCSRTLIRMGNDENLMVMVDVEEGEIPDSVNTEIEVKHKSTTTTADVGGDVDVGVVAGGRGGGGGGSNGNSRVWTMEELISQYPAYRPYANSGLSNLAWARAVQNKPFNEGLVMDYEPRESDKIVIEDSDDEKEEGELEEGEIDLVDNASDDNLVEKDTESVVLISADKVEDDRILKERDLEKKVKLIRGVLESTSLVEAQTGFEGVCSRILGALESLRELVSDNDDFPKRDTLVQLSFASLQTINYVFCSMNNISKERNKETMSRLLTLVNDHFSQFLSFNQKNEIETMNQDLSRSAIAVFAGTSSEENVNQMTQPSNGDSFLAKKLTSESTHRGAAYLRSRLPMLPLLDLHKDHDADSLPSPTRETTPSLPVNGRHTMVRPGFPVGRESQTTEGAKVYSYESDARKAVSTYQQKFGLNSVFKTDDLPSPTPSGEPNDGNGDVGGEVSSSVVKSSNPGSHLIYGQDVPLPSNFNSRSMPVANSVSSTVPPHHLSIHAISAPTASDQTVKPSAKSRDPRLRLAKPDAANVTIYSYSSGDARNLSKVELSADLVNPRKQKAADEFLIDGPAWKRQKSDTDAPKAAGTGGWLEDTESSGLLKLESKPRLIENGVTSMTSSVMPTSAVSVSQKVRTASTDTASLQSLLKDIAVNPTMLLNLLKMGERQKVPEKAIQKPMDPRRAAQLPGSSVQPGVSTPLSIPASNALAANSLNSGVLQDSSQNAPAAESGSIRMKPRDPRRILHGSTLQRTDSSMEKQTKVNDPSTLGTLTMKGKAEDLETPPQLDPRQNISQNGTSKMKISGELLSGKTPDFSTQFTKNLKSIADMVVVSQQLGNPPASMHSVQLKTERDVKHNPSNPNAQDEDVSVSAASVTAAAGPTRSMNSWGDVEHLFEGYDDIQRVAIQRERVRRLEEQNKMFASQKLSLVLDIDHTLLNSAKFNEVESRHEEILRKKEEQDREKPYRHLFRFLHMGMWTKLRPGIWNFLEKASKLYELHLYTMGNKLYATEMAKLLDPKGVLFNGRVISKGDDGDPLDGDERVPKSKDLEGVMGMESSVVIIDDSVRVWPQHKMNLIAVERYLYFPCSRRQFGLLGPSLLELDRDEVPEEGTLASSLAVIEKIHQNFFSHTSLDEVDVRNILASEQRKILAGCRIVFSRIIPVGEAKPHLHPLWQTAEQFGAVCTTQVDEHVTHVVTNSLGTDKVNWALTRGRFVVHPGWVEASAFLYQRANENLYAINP

T2: FLC EXPRESSOR (FLX) (Arabidopsis thaliana) (UniProt F4IMQ0)
T2 sequence: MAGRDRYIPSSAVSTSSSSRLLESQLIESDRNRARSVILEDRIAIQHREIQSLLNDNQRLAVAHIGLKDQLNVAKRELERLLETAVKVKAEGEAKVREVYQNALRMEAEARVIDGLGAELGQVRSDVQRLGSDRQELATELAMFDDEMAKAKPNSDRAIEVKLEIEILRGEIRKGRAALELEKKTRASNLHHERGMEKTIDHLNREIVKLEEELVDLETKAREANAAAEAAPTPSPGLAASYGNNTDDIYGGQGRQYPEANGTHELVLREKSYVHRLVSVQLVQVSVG

T3: FLX-LIKE 4 (FLX4) (Arabidopsis thaliana) (UniProt Q9FH51)
T3 sequence: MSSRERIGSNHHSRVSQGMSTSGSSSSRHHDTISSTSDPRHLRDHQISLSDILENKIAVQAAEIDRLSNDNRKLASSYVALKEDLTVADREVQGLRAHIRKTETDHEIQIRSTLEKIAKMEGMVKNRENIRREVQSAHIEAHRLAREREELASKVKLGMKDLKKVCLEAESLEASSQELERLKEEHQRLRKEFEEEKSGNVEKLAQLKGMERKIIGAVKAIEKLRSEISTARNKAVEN

T4: FRI … 1 (FES1) (Arabidopsis thaliana) (UniProt Q84VG7)
T4 sequence: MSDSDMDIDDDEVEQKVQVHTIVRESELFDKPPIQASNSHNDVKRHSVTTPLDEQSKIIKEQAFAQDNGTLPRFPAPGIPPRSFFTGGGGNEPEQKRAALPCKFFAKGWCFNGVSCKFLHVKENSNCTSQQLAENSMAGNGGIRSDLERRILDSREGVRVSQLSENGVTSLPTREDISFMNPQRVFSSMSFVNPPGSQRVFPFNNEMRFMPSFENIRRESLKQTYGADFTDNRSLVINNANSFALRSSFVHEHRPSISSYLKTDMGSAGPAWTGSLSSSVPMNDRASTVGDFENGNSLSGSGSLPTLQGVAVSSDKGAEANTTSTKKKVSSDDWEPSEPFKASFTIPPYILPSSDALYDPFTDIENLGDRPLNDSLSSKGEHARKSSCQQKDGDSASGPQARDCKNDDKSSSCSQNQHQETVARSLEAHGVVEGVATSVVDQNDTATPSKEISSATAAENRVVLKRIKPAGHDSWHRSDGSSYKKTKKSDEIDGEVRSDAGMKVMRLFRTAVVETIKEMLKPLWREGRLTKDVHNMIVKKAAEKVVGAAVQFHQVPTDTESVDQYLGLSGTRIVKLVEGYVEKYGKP

B1: C-TERMINAL DOMAIN PHOSPHATASE-LIKE 2 (CPL2) (protein, UniProt Q5YDB5 1-770)
chain: MNRLGHKSVVYHGDLRLGELDVNHVSSSHEFRFPNDEIRIHHLSPAGERCPPLAILQTIASFAVRCKLESSAPVKSQELMHLHAVCFHELKTAVVMLGDEEIHLVAMPSKEKKFPCFWCFSVPSGLYDSCLRMLNTRCLSIVFDLDETLIVANTMKSFEDRIEALKSWISREMDPVRINGMSAELKRYMDDRMLLKQYIDNDYAFDNGVLLKAQPEEVRPTSDGQEKVCRPVIRLPEKNTVLTRIKPEIRDTSVLVKLRPAWEELRSYLTAKTRKRFEVYVCTMAERDYALEMWRLLDPEAHLISLKELRDRIVCVKPDAKKSLLSVFNGGICHPKMAMVIDDRMKVWEDKDQPRVHVVSAYLPYYAPQAETALVVPHLCVARNVACNVRGYFFKEFDESLMSSISLVYYEDDVENLPPSPDVSNYVVIEDPGFASNGNINAPPINEGMCGGEVERRLNQAAAADHSTLPATSNAEQKPETPKPQIAVIPNNASTATAAALLPSHKPSLLGAPRRDGFTFSDGGRPLMMRPGVDIRNQNFNQPPILAKIPMQPPSSSMHSPGGWLVDDENRPSFPGRPSGLYPSQFPHGTPGSAPVGPFAHPSHLRSEEVAMDDDLKRQNPSRQTTEGGISQNHLVSNGREHHTDGGKSNGGQSHLFVSALQEIGRRCGSKVEFRTVISTNKELQFSVEVLFTGEKIGIGMAKTKKDAHQQAAENALRSLAEKYVAHVAPLARETEKGPENDNGFLWESSEDVSNKGLEEEAPKENISEL
B2: CPL4 (protein, UniProt Q00IB6 1-440)
chain: MSVASDSPVHSSSSSDDLAAFLDAELDSASDASSGPSEEEEAEDDVESGLKRQKLEHLEEASSSKGECEHPGSFGNMCFVCGQKLEETGVSFRYIHKEMRLNEDEISRLRDSDSRFLQRQRKLYLVLDLDHTLLNTTILRDLKPEEEYLKSHTHSLQDGCNVSGGSLFLLEFMQMMTKLRPFVHSFLKEASEMFVMYIYTMGDRNYARQMAKLLDPKGEYFGDRVISRDDGTVRHEKSLDVVLGQESAVLILDDTENAWPKHKDNLIVIERYHFFSSSCRQFDHRYKSLSELKSDESEPDGALATVLKVLKQAHALFFENVDEGISNRDVRLMLKQVRKEILKGCKIVFSRVFPTKAKPEDHPLWKMAEELGATCATEVDASVTHVVAMDVGTEKARWAVREKKYVVHRGWIDAANYLWMKQPEENFGLEQLKKQLTEEE

Legend:
Assay in all cases: two-hybrid; AD (pGADT7) and BD (pGBKT7) vectors co-transformed into Y2HGold yeast; growth on SD-Ade/-His/-Leu/-Trp against SD-Leu/-Trp
[1] = biological target: T1, C-TERMINAL DOMAIN PHOSPHATASE-LIKE 3 (CPL3) (Arabidopsis thaliana)
[2] = biological target: T2, FLC EXPRESSOR (FLX) (Arabidopsis thaliana)
[3] = biological target: T3, FLX-LIKE 4 (FLX4) (Arabidopsis thaliana)
[4] = biological target: T4, FRI … 1 (FES1) (Arabidopsis thaliana)
[5] = biological target: SUPPRESSOR OF FRI 4 (SUF4) (Arabidopsis thaliana) (UniProt Q9C5G0)

Binder	binding [1]	binding [2]	binding [3]	binding [4]	binding [5]
B1	binds	binds	–	–	–
B2	no binding	no binding	no binding	no binding	no binding
